Measured values: patent US20220411514A1, “ANTI-GAL3 ANTIBODIES AND METHODS OF USE FOR INSULIN RESISTANCE” (TrueBinding, Inc., priority 2021, published 2022)
Numbering of substitutions follows the chain as printed. Names and notes keep the numbering of the source.

B1: F847C.11B1: anti-Gal3 antibody (antibody)
heavy: EVQLQQSGPELVKPGASVKISCKASGNTFTDHNMHWVKQSHGKSLEWIGYIYPYNGGTGYNQKFKSKATLTVDNSSSTVYMELRSLTSEDSAVYYCARGEYDYLAWFAYWGQGTLVTVSAASTKGPSVFPLAPCSRSTSESTAALGCLVKDYFPEPVTVSWNSGALTSGVHTFPAVLQSSGLYSLSSVVTVPSSSLGTKTYTCNVDHKPSNTKVDKRV[in this place human IgG4 Fc with S228P (EU numbers)]
light: EIVLTQSPASLSVTTGEKVTIRCITSIDIDDDMNWYQQKPGEPPKLLISEGNTLRPGVPSRFSSSGYGTDFVFTIENTLSEDVADYYCLQSDNKPLTFGAGTKLELKRTVAAPSVFIFPPSDEQLKSGTASVVCLLNNFYPREAKVQWKVDNALQSGNSQESVTEQDSKDSTYSLSSTLTLSKADYEKHKVYACEVTHQGLSSPVTKSFNRGEC
modifications: F847C.11B1 heavy chain peptide sequence; F847C.11B1 light chain peptide sequence
notes: anti-Gal3 antibody
B2: F846C.1B2: anti-Gal3 antibody (antibody)
heavy: QIQLVQSGPELKKPGETVKISCKASGYTFTNYGMNWVKQAPGKGLKWMGWINTYTGEPSYADDFKGRFAFSLETSASTAYLQINNLKNEDMATYFCARWGGYAGDYYAMDFWGQGTSVTVSSASTKGPSVFPLAPCSRSTSESTAALGCLVKDYFPEPVTVSWNSGALTSGVHTFPAVLQSSGLYSLSSVVTVPSSSLGTKTYTCNVDHKPSNTKVDKRV[in this place human IgG4 Fc with S228P (EU numbers)]
light: NIWLTQSPSSLAVSAGEMVTMTCKSSQSVLYSSNQKNYLAWYQQKPGQSPKLLIYWASTRESGVPDRFTGSGSGTDFSLTISSVQAEDLAVYYCHQYLSSLTFGAGTKLELKRTVAAPSVFIFPPSDEQLKSGTASVVCLLNNFYPREAKVQWKVDNALQSGNSQESVTEQDSKDSTYSLSSTLTLSKADYEKHKVYACEVTHQGLSSPVTKSFNRGEC
modifications: F846C.1B2 heavy chain peptide sequence; F846C.1B2 light chain peptide sequence
notes: anti-Gal3 antibody
B3: F846C.1H12: anti-Gal3 antibody (antibody)
heavy: B2 heavy with Y32F, M91I, F111Y
light: B2 light with W3M, L4M, E17Q, M18K, T22S, N34S, T69S, S78T, A86P
modifications: F846C.1H12 heavy chain peptide sequence; F846C.1H12 light chain peptide sequence
notes: anti-Gal3 antibody
B4: F846C.1F5: anti-Gal3 antibody (antibody)
heavy: B2 heavy with A103D, F111Y
light: B2 light with W3M, L4M, M18K, T22S, S78T, A86P
modifications: F846C.1F5 heavy chain peptide sequence; F846C.1F5/F846C.2H3 light chain peptide sequence
notes: anti-Gal3 antibody
B5: F846C.2H3: anti-Gal3 antibody (antibody)
heavy: B2 heavy with A103D, F111Y
light: B2 light with W3M, L4M, M18K, T22S, S78T, A86P
modifications: F846C.2H3 heavy chain peptide sequence; F846C.1F5/F846C.2H3 light chain peptide sequence
notes: anti-Gal3 antibody
B6: F849C.8H3: anti-Gal3 antibody (antibody)
heavy: QVTLKESGPGILQPSQTLSLTCSFSGFSLSTFGMGVGWIRQPSGKGLEWLAHIWWDDDKHYNPALKSRLTISKDTSKNQVFLRIANVDTADNATYYCARIDYGDYVGFAYWGQGTLVTVSAASTKGPSVFPLAPCSRSTSESTAALGCLVKDYFPEPVTVSWNSGALTSGVHTFPAVLQSSGLYSLSSVVTVPSSSLGTKTYTCNVDHKPSNTKVDKRV[in this place human IgG4 Fc with S228P (EU numbers)]
light: DIGMRQAAFSNPVTLGTSASISCRSSKSLLYSNGITYLYWFLQKPGQSPQLLIYQMSNLASGVPDRFSSSGSGTDFTLRISRVEADDVGVYYCAQNLELPWTFGGGTKLEIKRTVAAPSVFIFPPSDEQLKSGTASVVCLLNNFYPREAKVQWKVDNALQSGNSQESVTEQDSKDSTYSLSSTLTLSKADYEKHKVYACEVTHQGLSSPVTKSFNRGEC
modifications: F849C.8H3 heavy chain peptide sequence; F849C.8H3 light chain peptide sequence
notes: anti-Gal3 antibody
B7: 847.14H4: anti-Gal3 antibody (antibody)
heavy: QIQLVQSGPELTKPGETVKISCKASGYTFTDYGMNWVRQAPGETLKWMGWINTYTGEPTYADDFKGRFAFSLESSASTAYLQINNLKNEDVATYFCARYPMDYWGQGTSVTVSSASTKGPSVFPLAPCSRSTSESTAALGCLVKDYFPEPVTVSWNSGALTSGVHTFPAVLQSSGLYSLSSVVTVPSSSLGTKTYTCNVDHKPSNTKVDKRV[in this place human IgG4 Fc with S228P (EU numbers)]
light: QAVVTQESALTTSPGETVTLTCRSSTGAVTTSNYANWVQEKPDHLFTGLIGGTNNRAPGVPARFSGSLIGDKAALTITGAQTEDEAIYFCALWYSNHLVFGGGTKLTVLRTVAAPSVFIFPPSDEQLKSGTASVVCLLNNFYPREAKVQWKVDNALQSGNSQESVTEQDSKDSTYSLSSTLTLSKADYEKHKVYACEVTHQGLSSPVTKSFNRGEC
modifications: 847.14H4 heavy chain peptide sequence; F847C.4B10/847.14H4 light chain peptide sequence
notes: anti-Gal3 antibody
B8: 9H2.2H10: anti-Gal3 antibody (antibody)
heavy: QVQLQQPGAELVGPGSSVKLSCKASGYTFTNYWIHWVKQRPLQGLEWIGNIDPSDSETHYNQKFKDKATLTVDKSSSTAYMQLSSLTSEDSAVYYCARHGYYDYWGQGTTLTVSSASTKGPSVFPLAPCSRSTSESTAALGCLVKDYFPEPVTVSWNSGALTSGVHTFPAVLQSSGLYSLSSVVTVPSSSLGTKTYTCNVDHKPSNTKVDKRV[in this place human IgG4 Fc with S228P (EU numbers)]
light: DIVMTQSHKFMSTSVGDRVSITCKASQDVSTAVAWYQQKPGQSPKLLIYWASTRHTGVPDRFTGSGSGTDYTLTISSVQAEDLALYYCQQHYTTPLTFGAGTKLELKRTVAAPSVFIFPPSDEQLKSGTASVVCLLNNFYPREAKVQWKVDNALQSGNSQESVTEQDSKDSTYSLSSTLTLSKADYEKHKVYACEVTHQGLSSPVTKSFNRGEC
modifications: 9H2.2H10 heavy chain peptide sequence; 9H2.2H10 light chain peptide sequence
notes: anti-Gal3 antibody

Each molecule was assayed against T1, Human Gal3 peptides (Homo sapiens, UniProt P17931) (assay: Gal3 peptide binding ELISA (Example 8)). Details: antibody 5 μg/mL.
T1 construct: purchased LifeTein custom order
Description: Gal3 peptide binding activity of additional exemplary anti-Gal3 antibodies was assessed with the same peptides as described in FIG. 18 (SEQ ID NOs: 3-26). Human Gal3 peptides (LifeTein, custom order) and human Gal3 proteins (R&D Systems, 8259-GA; TrueBinding, QCB200349) were diluted in PBS (Corning, 21-030-CM) to concentrations of at least 100 μg/mL (peptides) or 1 μg/mL (proteins), and added to the wells of several 96-well ELISA plates (Thermo Fisher, 44-2404-21). After incubating the plates at 4° C. overnight, the plates were washed three times with PBST (PBS with 0.05% Tween 20 [VWR, 0777]). The plates were then blocked for an hour with 2% BSA (EMD Millipore, 126609) in PBST at room temperature with gentle rocking. Thereafter, the 2% BSA in PBST was discarded and Gal3-binding antibodies (reformatted hIgG4 [S228P]) were diluted in 2% BSA in PBST to concentrations of 5 μg/mL and added to the wells. The plates were incubated for an hour at room temperature with gentle rocking and then washed three times with PBST. Afterwards, Peroxidase AffiniPure F(ab′)2 Fragment Goat Anti-Human IgG (H+L) polyclonal antibody (Jackson ImmunoResearch, 109-036-003), was diluted in 2% BSA in PBST (1:4000) and added to the wells. The plates were incubated for 1 hour at room temperature with gentle rocking and then washed three times with PBST. TMB substrate (Thermo Scientific, 34029) was then added to each well. The reaction was stopped with 1M HCl (JT Baker, 5620-02) and read using a plate reader (Molecular Devices) at absorbance of 450 nm.

Row | Molecule | binding to Gal3 peptide 17 (SEQ ID NO: 19) | binding to Gal3 peptide 5 (SEQ ID NO: 7) | binding to Gal3 peptide 6 (SEQ ID NO: 8) | binding to Gal3 peptide 7 (SEQ ID NO: 9) | binding to Gal3 peptide 2 (SEQ ID NO: 4)
1 | B1 | bound | – | – | – | –
2 | B2 | – | bound | bound | bound | –
3 | B3 | bound | bound | bound | – | –
4 | B4 | bound | – | bound | – | –
5 | B5 | bound | – | bound | – | –
6 | B6 | bound | – | – | – | bound
7 | B7 | – | – | – | bound | –
8 | B8 | – | – | – | bound | –
